Experimental data taken from PMC4336329 (PLoS ONE, 2015).
The whole screen tested about 310,000 compounds, of which about 2,200 (0.71%) showed an effect of 50% or more. The effect is printed as a negative number. Some of the results follow.

Target: human ether-à-go-go-related gene (hERG) potassium channel (human, UniProt Q12809)
Assay: primary screen, population patch clamp on CHO cells stably expressing hERG

Sequence of human ether-à-go-go-related gene (hERG) potassium channel (Q12809 whole entry, looked up): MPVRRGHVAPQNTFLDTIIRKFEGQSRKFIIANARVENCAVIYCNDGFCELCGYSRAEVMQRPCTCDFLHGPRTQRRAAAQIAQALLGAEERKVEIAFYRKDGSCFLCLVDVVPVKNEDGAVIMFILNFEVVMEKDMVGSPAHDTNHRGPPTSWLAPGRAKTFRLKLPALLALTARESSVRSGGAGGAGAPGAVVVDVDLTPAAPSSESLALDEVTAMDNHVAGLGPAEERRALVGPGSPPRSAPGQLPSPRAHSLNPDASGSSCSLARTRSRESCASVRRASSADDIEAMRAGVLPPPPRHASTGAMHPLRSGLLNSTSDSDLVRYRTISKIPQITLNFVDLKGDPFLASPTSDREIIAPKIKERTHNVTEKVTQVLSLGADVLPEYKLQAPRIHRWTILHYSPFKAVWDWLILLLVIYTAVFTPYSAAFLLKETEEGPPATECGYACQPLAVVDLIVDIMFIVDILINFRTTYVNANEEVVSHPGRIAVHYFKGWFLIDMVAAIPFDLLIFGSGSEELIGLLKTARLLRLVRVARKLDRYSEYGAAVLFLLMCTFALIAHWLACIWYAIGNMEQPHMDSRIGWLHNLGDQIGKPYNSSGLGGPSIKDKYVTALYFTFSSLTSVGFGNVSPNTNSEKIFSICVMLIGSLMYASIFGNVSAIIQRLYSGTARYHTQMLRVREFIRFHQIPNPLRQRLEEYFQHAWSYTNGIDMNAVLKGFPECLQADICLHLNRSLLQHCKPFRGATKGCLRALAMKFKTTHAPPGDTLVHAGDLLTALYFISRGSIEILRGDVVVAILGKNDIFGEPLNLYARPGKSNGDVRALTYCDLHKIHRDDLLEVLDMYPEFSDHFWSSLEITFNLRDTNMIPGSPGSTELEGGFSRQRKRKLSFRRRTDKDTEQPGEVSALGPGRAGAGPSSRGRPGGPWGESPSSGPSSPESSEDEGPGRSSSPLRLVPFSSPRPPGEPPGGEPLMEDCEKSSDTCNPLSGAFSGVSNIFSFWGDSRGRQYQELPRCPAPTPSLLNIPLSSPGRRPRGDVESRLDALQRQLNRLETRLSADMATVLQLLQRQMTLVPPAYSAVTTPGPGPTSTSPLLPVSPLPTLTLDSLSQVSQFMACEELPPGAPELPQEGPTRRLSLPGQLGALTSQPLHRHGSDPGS

Compound | hERG current change (%, negative = inhibition) at 1uM
CC(=O)Nc1ccc(NC(=O)COC(=O)/C=C/c2ccc3c(c2)OCO3)cc1 | 14.3%
Cn1/c(=N/NC(=O)c2ccccc2F)sc2ccccc21 | 13.3%
O=C(CSc1nc2[nH]ncc2c(=O)[nH]1)NCc1ccccc1 | 16.7%
CC1CCN(C(=S)c2cccc(O)c2)CC1 | 14.5%
O=C(CSc1nncn1-c1cccnc1)Nc1ccccc1[N+](=O)[O-] | 15%
CCC(=O)c1ccc(N2CCCCC2)c(F)c1 | 14.4%
O=C(Cc1ccc(S(=O)(=O)N2CCOCC2)s1)NNC(=O)c1ccccc1Cl | 9.43%
Cc1cc2ccccn2c1C(=O)c1ccc(C#N)cc1 | 19%
COc1ccc(CCC(=O)NNC(=O)c2cccs2)cc1 | 8.22%
Cc1c(N=Nc2ccc(O)cc2)c(=O)n(-c2ccccc2)n1C | 6.25%
Cc1ccc(C(=O)C(C)OC(=O)CN2C(=O)NC3(CCCC3)C2=O)cc1C (centres unmarked) | 15.6%
C=CCc1c(C)nc(N)[nH]c1=O | 11.9%
CC1Sc2ccc(S(=O)(=O)CCC(=O)Nc3ccccn3)cc2NC1=O (centres unmarked) | 18.3%
O=C(CC(c1ccco1)S(=O)(=O)c1ccccc1)c1ccccc1 (centres unmarked) | 6.99%
CCCc1nnc(NC(=O)CCC(=O)NCc2ccccc2Cl)s1 | 5.93%
Cc1cc(C)nc(SCC(=O)Nc2ccc(N3CCOCC3)cc2)n1 | -6.38%
c1ccc(-c2nc3ccccc3s2)nc1 | 12.9%
COC(=O)[C@@H](NC(=O)NCc1ccccc1Cl)C(C)C | 12.1%
COc1ccc(CCNC(=O)Cn2nc(C)n3nc(-c4ccccc4)cc3c2=O)cc1OC | 11.9%
O=C(O)c1cc2cc(F)ccc2[nH]1 | 14.3%
O=C(c1cc(-c2cccs2)nn1-c1ccccc1)N1CCN(S(=O)(=O)c2ccccc2)CC1 | 9.21%
CCOC(=O)c1cnn(-c2cc(C)c3ccccc3n2)c1N | -5.92%
CCN(CC(=O)Nc1ccccc1OC)C(=O)Cn1cnc2ccccc2c1=O | 4.69%
Cc1ccc2[nH]c(C(=O)NN=C3CCCCC3)c(-c3ccccc3)c2c1 | 2.8%
CC(C(=O)Nc1ccccc1)N(C)CCOc1ccccc1 (centres unmarked) | 1.72%
N#Cc1ccccc1NC(=O)CSC1=Nc2ccccc2C2CC=NN12 (centres unmarked) | 5.39%
